Data taken from PubChem BioAssay AID588342 (National Center for Advancing Translational Sciences (NCATS), 2011).
In all, about 360,000 compounds went through this assay and about 25,000 (6.9%) were called active. This list was built around the results that the source calls inconclusive (neither active nor inactive); the mix of calls is not that of the screen. The call rests on the fitted dose curve; in most records, active means well fitted inhibition curve with a large enough effect; inconclusive means small, poorly fitted or top-dose-only effect; inactive means flat fitted curve, though single readings scatter. A potency beside an inconclusive call is a rough fit, not a confirmed value.

target: Luciferin 4-monooxygenase (Photinus pyralis) (UniProt P08659); experiment: qHTS profiling assay for firefly luciferase inhibitor/activator using purifed enzyme and Km concentrations of substrates (counterscreen for miR-21 project); details: purified FLuc, luminescence inhibition; series mostly up to 57.5 µM; activity change, negative = inhibition: at the top concentration; further: nearly all actives have a fitted effect of over 55% in size;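 on activity change, negative = inhibition: plate controls were vehicle for no effect and reference inhibitor for full effect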
How it was run: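 Purified P. pyralis luciferase (10nM final) with 10uM D-luciferin and 10uM ATP (Km levels) in 50mM Tris acetate pH 7.5, 10mM Mg acetate, 0.01% Tween-20, 0.05% BSA; qHTS 6-point titration, ~60 µM downward; luminescence read.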
Potency means the concentration at half of the fitted maximal effect; tags describe the fitted curve by direction and shape.

Chain of UniProt P08659 (P08659 whole entry, looked up): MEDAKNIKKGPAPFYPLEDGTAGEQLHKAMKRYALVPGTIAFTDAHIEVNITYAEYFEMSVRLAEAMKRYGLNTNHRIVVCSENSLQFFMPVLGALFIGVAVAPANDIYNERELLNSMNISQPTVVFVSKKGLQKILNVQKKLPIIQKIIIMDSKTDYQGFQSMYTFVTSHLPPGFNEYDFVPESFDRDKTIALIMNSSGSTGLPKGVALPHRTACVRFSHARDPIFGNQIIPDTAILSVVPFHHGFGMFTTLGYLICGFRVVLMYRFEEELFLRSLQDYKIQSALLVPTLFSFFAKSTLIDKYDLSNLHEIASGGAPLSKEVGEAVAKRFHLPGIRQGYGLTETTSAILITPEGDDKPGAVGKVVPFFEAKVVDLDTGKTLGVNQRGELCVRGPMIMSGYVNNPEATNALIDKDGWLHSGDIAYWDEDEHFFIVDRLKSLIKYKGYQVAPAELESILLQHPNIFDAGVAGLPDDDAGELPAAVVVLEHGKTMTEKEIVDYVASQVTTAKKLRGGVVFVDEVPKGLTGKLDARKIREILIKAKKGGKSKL

How did the Potency turn out when CC(C)n1c(O)c(C2c3cc(Cl)ccc3Oc3[nH]c(=O)n(C(C)C)c(=O)c32)c(=O)[nH]c1=O (stereo not drawn) was run?
The Potency was inconclusive: 13.5 µM [inhibitor, partial curve].

Which Potency does the source give for COc1ccc(CN2C(=O)NC(=O)/C(=C\c3cccc(OC)c3OC)C2=O)cc1 here?
Its Potency is inconclusive: 23.9 µM [inhibitor, single point].

How did the Potency turn out when O=P(O)(O)c1ccccc1OCCOCCOCCOCCOc1ccccc1P(=O)(O)O was run?
Its Potency is inconclusive: 13.5 µM [inhibitor, partial curve, poor fit].

For COC(=O)C1=Nc2ccccc2/C1=C\c1c(O)n(-c2ccc(OC)cc2)c(=O)[nH]c1=O, which Potency is on record?
The Potency was inconclusive: 37.9 µM [inhibitor, single point].

How did the Potency turn out when CC(=O)Nc1ccc(C(c2c(O)c3ccccc3oc2=O)c2c(C)n(C)n(-c3ccccc3)c2=O)cc1 (stereo not drawn) was run?
Its Potency is inconclusive: 10.7 µM [inhibitor, partial curve].

O=C(O)CCn1cc(C=C2C(=O)NC(=O)NC2=O)c(-c2cc3ccccc3oc2=O)n1 was tested. Which Potency did it give?
Its Potency is inconclusive: 16.9 µM [inhibitor, partial curve].

Cc1ccc(CCNC(=O)C2CCCN(Cc3nc(-c4cccc(Cl)c4)oc3C)C2)cc1 (stereo not drawn) was tested. Which Potency did it give?
The Potency was inconclusive: 13.5 µM [inhibitor, partial curve, poor fit].

How did the Potency turn out when C1=CC(Cc2cncs2)c2ccccc21 (stereo not drawn) was run?
Its Potency is inconclusive: 33.8 µM [inhibitor, partial curve, poor fit].

O=C1NC(c2cccnc2)Nc2sc3c(c21)CCCC3 (stereo not drawn) was tested. Which Potency did it give?
The Potency was inconclusive: 23.9 µM [inhibitor, single point].

CC(C)=CCc1c(O)cc2c(c1O)C(=O)CC(c1ccc(O)cc1)O2 (stereo not drawn) was tested. Which Potency did it give?
Its Potency is inconclusive: 26.9 µM [inhibitor, single point].

For O=C(CSc1ccc(-c2ccco2)nn1)Nc1ccccc1, which Potency is on record?
The Potency was inconclusive: 30.1 µM [inhibitor, single point].

NC(=O)c1ccc(C(=O)Nc2ccc([As](=O)(O)O)cc2)cc1 was tested. Which Potency did it give?
The Potency was inconclusive: 30.1 µM [inhibitor, partial curve, poor fit].

For CN(CCc1ccccc1)Cc1ccccc1[N+](=O)[O-], which “activity change, negative = inhibition” value is on record?
The value was inactive: -12.7%.

Which Potency does the source give for COc1ccc(N2C(=O)/C(=C/c3ccc(C)o3)C(=O)NC2=S)c(OC)c1 here?
Its Potency is inconclusive: 21.3 µM [inhibitor, partial curve].

Cc1cc(=O)oc2cc(OCC(=O)N3CCN(C(C)c4ccccc4)CC3)c(Cl)cc12 (stereo not drawn) was tested. Which “activity change, negative = inhibition” value did it give?
The value was inactive: 3.84%.

How did the Potency turn out when CN1C(=O)c2ccccc2Sc2ccc(NC(=O)N3CCN(c4ccccc4)CC3)cc21 was run?
The Potency was inconclusive: 19 µM [inhibitor, partial curve, poor fit].

Which Potency does the source give for Cc1ccc(C(=O)COC(=O)Cc2ccccc2)cc1 here?
Its Potency is active: 0.953 µM.

With O=C1NC(=O)N(c2ccccc2)C(=O)/C1=C\c1ccccc1[N+](=O)[O-] as the compound, how does the Potency read?
Its Potency is inconclusive: 37.9 µM [inhibitor, partial curve, poor fit].

How did the Potency turn out when COc1ccc(N2C(=O)/C(=C/c3cccs3)C(=O)NC2=S)cc1 was run?
The Potency was inconclusive: 10.7 µM [inhibitor, partial curve].

How did the Potency turn out when O=C(O)c1cc(S(=O)(=O)Nc2ccccc2C(=O)O)ccc1O was run?
Its Potency is inconclusive: 26.9 µM [inhibitor, partial curve, poor fit].

With O=C(O)c1ccc(/C=C/c2nc3ccccc3c(=O)n2-c2ccc(Br)cc2)cc1 as the compound, how does the Potency read?
The Potency was inconclusive: 23.9 µM [inhibitor, single point].

Cc1ccc(Cl)c2sc(NC(=O)c3ccc(S(=O)(=O)N4CCCC4)cc3)nc12 was tested. Which Potency did it give?
Its Potency is inconclusive: 13.5 µM [inhibitor, partial curve, poor fit].

With O=C(NCc1c(-n2cccc2)sc2c1CCCC2)Nc1cccc(C(F)(F)F)c1 as the compound, how does the Potency read?
Its Potency is inconclusive: 37.9 µM [inhibitor, single point].

CCc1ccc(C(=O)NCc2ccc(Cl)cc2Cl)cc1 was tested. Which Potency did it give?
The Potency was inconclusive: 16.9 µM [inhibitor, partial curve].

How did the Potency turn out when CCN(CC)C(=O)c1ccc(NC(=O)Cn2nc(-c3ccc(C)cc3)c3ccccc3c2=O)cc1 was run?
Its Potency is inconclusive: 37.9 µM [inhibitor, partial curve, poor fit].

Which Potency does the source give for CN(C)c1ccc(/C=C/c2cc[n+](C)c3ccccc23)cc1 here?
The Potency was inconclusive: 26.9 µM [inhibitor, single point].

Which Potency does the source give for Cc1ccccc1-n1c(O)c(/C=C/C=Nc2ccccc2)c(=O)[nH]c1=O here?
The Potency was inconclusive: 37.9 µM [inhibitor, partial curve, poor fit].

For CCN(CC)c1ccc(/C=N/c2sc3c(c2C#N)C2CCN3CC2)c(O)c1, which Potency is on record?
The Potency was inconclusive: 13.5 µM [inhibitor, partial curve].

With S=c1nc(-c2ccccc2)n(-c2ccccc2)[nH]1 as the compound, how does the Potency read?
Its Potency is inconclusive: 37.9 µM [inhibitor, partial curve, poor fit].

With O=C1NC(=O)N(c2ccccc2)C(=O)/C1=C\C=C\c1ccccc1 as the compound, how does the Potency read?
The Potency was inconclusive: 19 µM [inhibitor, partial curve].

For C#C[C@]1(O)CC[C@H]2[C@@H]3CCC4=CC(=O)CC[C@]4(C)[C@H]3CC[C@@]21C, which “activity change, negative = inhibition” value is on record?
The value was inactive: -2.27%.

Which Potency does the source give for CCOc1ccc(N=Cc2c(O)n(-c3ccc(C)c(C)c3)c(=O)[nH]c2=O)cc1 here?
The Potency was inconclusive: 21.3 µM [inhibitor, single point].

With O=c1oc2ccccc2n1CCCOc1ccccc1 as the compound, how does the Potency read?
Its Potency is active: 19 µM.

Which “activity change, negative = inhibition” value does the source give for CC(=Nc1ccc(F)cc1)c1c(O)n(C)c(=O)[nH]c1=O here?
Its value is inactive: 0.323%.

With Cc1ccc(C(C)(C)NC(=O)C2CCC(=O)N(C3CCCCCC3)C2)cc1 (stereo not drawn) as the compound, how does the Potency read?
The Potency was active: 15.1 µM.

Cc1cc(Br)c(NC(=O)CN2CC=C(c3ccccc3)CC2)c(Br)c1 was tested. Which Potency did it give?
Its Potency is inconclusive: 23.9 µM [inhibitor, partial curve, poor fit].

How did the Potency turn out when O=C1CC(c2ccc(O)cc2)Oc2cc(O)cc(O)c21 (stereo not drawn) was run?
The Potency was inconclusive: 30.1 µM [inhibitor, partial curve, poor fit].

For COc1ccc(OC)c(N2C(=O)NC(=O)/C(=C/c3ccc([N+](=O)[O-])s3)C2=O)c1, which Potency is on record?
The Potency was active: 16.9 µM.

How did the Potency turn out when O=c1c2ccccc2nc(/C=C/c2ccc(F)cc2)n1-c1ccccc1O was run?
The Potency was inconclusive: 37.9 µM [inhibitor, partial curve, poor fit].

For N=C1c2ccccc2CN1CC(=O)c1ccccc1, which Potency is on record?
The Potency was active: 15.1 µM.

Which Potency does the source give for Cc1nn(-c2ccccc2)c(Cl)c1/C=N/NC(=O)c1ccncc1 here?
Its Potency is inconclusive: 23.9 µM [inhibitor, single point].

With COc1ccc(NC(=O)c2ccc(COCC(F)(F)C(F)F)cc2)cc1 as the compound, how does the Potency read?
The Potency was inconclusive: 12 µM [inhibitor, partial curve].

Which Potency does the source give for CN1C(=O)C(=Cc2ccccc2OCc2ccccc2Cl)C(=O)N(C)C1=O here?
The Potency was inconclusive: 37.9 µM [inhibitor, partial curve, poor fit].

How did the “activity change, negative = inhibition” value turn out when CCOc1ccccc1CN(CCc1ccc2c(c1)OCO2)Cc1ccc(CC)cc1 was run?
The value was inactive: -0.47%.

Cn1nc(OC(=O)Nc2ccccc2)cc1C(F)(F)F was tested. Which Potency did it give?
Its Potency is active: 16.9 µM.

Cc1cc(=O)oc2cc(OCC(=O)N3C[C@H]4C[C@@H](C3)c3cccc(=O)n3C4)c(Cl)cc12 was tested. Which “activity change, negative = inhibition” value did it give?
The value was inactive: 1.98%.

Which Potency does the source give for COc1ccc(CN2C(=O)NC(=O)/C(=C/c3ccc(OC)c(OC)c3OC)C2=O)cc1 here?
Its Potency is inconclusive: 23.9 µM [inhibitor, single point].

How did the Potency turn out when Oc1cc2c(cc1O)[C@H]1c3ccccc3CN[C@@H]1CC2 was run?
The Potency was inconclusive: 6.75 µM [inhibitor, partial curve, poor fit].

How did the Potency turn out when COc1ccc(OCCn2c(NC(=O)c3ccc(OC)cc3)nc3ccccc32)cc1 was run?
The Potency was inconclusive: 4.78 µM [inhibitor, full curve].

How did the Potency turn out when NC(=O)c1cccc(-c2cccc(OC(=O)NC3CCCCC3)c2)c1 was run?
The Potency was inconclusive: 23.9 µM [inhibitor, single point].

How did the Potency turn out when Cc1c(Cl)cccc1N1C(=O)NC(=O)/C(=C\c2cc(C)n(-c3cccc(C(=O)O)c3C)c2C)C1=O was run?
Its Potency is inconclusive: 26.9 µM [inhibitor, partial curve, poor fit].

Which Potency does the source give for CSc1nn(-c2ccc(C(=O)OCC(=O)NC(=O)NC(C)C)cc2)c(=S)s1 here?
Its Potency is inconclusive: 37.9 µM [inhibitor, partial curve, poor fit].

For CCOP(=O)(OCC)/C(C#N)=C/c1ccc(-c2ccc(F)cc2F)o1, which Potency is on record?
The Potency was inconclusive: 37.9 µM [inhibitor, single point].

CCOC(=O)C(=CNc1ccc(C(O)(C(=O)OCC)C(F)(F)F)cc1C)C(=O)OCC (stereo not drawn) was tested. Which “activity change, negative = inhibition” value did it give?
Its value is inactive: 0.298%.

COc1ccc(NC2CC(=O)N(C(C)C)C2=O)cc1 (stereo not drawn) was tested. Which Potency did it give?
The Potency was active: 15.1 µM.

Which Potency does the source give for Cc1cc(C(=O)CS(=O)c2ccc(F)cc2)cc(C)c1OC(=O)N(C)C (stereo not drawn) here?
The Potency was inconclusive: 30.1 µM [inhibitor, partial curve, poor fit].

How did the Potency turn out when COc1ccccc1OCCCn1cc(C=O)c2ccccc21 was run?
Its Potency is inconclusive: 21.3 µM [inhibitor, single point].

For CN1C(=O)C(=Cc2ccc(Sc3ccccc3)o2)C(=O)N(C)C1=O, which Potency is on record?
Its Potency is inconclusive: 7.57 µM [inhibitor, partial curve, poor fit].

How did the Potency turn out when COc1cc(O)c(C(=O)O)c(-c2cc(O)c(O)cc2C)c1 was run?
The Potency was inconclusive: 4.78 µM [inhibitor, partial curve].

How did the Potency turn out when CN(C(=O)COC(=O)c1cn(C)c2ccccc12)C1CCCCC1 was run?
The Potency was inconclusive: 12 µM [inhibitor, partial curve].

Which Potency does the source give for O=C(c1ccco1)c1cn(Cc2ccccc2Cl)c2ccccc12 here?
Its Potency is inconclusive: 26.9 µM [inhibitor, partial curve, poor fit].

How did the Potency turn out when O=C1CC(c2ccc(F)cc2)c2c(c3ccccc3oc2=O)O1 (stereo not drawn) was run?
The Potency was inconclusive: 9.53 µM [inhibitor, partial curve].

With Cc1ccc(Cn2nc(C(=O)Nc3ccc(Br)cc3)cc2C)cc1 as the compound, how does the Potency read?
The Potency was active: 9.53 µM.

With CCOC(=O)CSCCOc1ccc(C=C2C(=O)NC(=O)NC2=O)cc1OC as the compound, how does the Potency read?
Its Potency is inconclusive: 30.1 µM [inhibitor, single point].

CCOC(=O)c1ccc(NC(=O)C2C3C=CC(O3)C2C(=O)O)cc1 (stereo not drawn) was tested. Which “activity change, negative = inhibition” value did it give?
Its value is inactive: -1.85%.

For COc1ccc2nc(/N=C/c3c(O)n(-c4cccc(Cl)c4)c(=O)[nH]c3=O)sc2c1, which Potency is on record?
Its Potency is inconclusive: 23.9 µM [inhibitor, partial curve].

With Oc1ccccc1/C=N/NP(=S)(c1ccccc1)c1ccccc1 as the compound, how does the Potency read?
Its Potency is inconclusive: 26.9 µM [inhibitor, partial curve].

How did the Potency turn out when CCCn1cc2c3c(cccc31)C1CC(C)CN(C)C1C2 (stereo not drawn) was run?
Its Potency is inconclusive: 26.9 µM [inhibitor, partial curve, poor fit].
